# ± gives the standard error. This is one part of the list.
# Target: terminal deoxynucleotidyl transferase (calf thymus) (UniProt P06526)
# Assay: TdT poly-dT extension signal (Cy3 hybridisation fluorescence, uncapped minus capped) (fluorescence a.u.); higher = more efficient initiation of TdT extension
# Settings: initiator chemistry: 2'-O-methyl-RNA, free 3'-OH (5'-tethered via HEG linker)
# Procedure: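 All mono- to pentamer 2'-O-methyl-RNA initiators were made by photolithographic in situ synthesis (3'-NPPOC amidites, reverse direction, free 3'-OH) on glass on a hexaethylene glycol linker. Each was made in uncapped and DMTr-dT-capped versions, about 11 replicates each. Arrays were extended with calf thymus TdT (0.2 U/uL), 100 uM dTTP and 0.25 mM CoCl2 for 120 min at 37 C, hybridised with an rA18-Cy3 probe and scanned at 532 nm. The value is the mean uncapped minus the mean capped signal. IDs are written 3'->5' and are reversed to 5'->3'; all nucleotides are 2'-OMe.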
# UniProt P06526, sequence (P06526 whole entry): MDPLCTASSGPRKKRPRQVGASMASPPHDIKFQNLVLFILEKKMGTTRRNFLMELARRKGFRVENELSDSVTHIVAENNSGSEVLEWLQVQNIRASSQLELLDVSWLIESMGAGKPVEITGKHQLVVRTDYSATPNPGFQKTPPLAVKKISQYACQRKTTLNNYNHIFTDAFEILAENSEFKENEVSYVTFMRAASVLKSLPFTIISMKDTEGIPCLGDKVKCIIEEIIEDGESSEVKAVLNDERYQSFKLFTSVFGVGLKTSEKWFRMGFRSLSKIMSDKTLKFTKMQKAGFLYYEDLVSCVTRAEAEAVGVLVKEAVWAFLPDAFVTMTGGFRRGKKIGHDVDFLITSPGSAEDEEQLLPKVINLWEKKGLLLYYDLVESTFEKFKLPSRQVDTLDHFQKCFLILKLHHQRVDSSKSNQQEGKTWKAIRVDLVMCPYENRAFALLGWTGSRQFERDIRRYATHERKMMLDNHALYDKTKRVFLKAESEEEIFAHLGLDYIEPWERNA
row,Sequence,TdT poly-dT extension signal
1,GUCAU,506 ± 29
2,GGAGA,880 ± 73
3,CGCGG,356 ± 32
4,AUCCA,392 ± 31
5,GCGAA,1000 ± 120
6,AUUC,339 ± 23
7,CACAC,836 ± 66
8,CAUGA,506 ± 40
9,GCGGA,554 ± 28
10,ACUGG,210 ± 26
11,AGGUG,221 ± 21
12,CCGCC,552 ± 28
13,UCAUG,226 ± 23
14,ACGCG,305 ± 32
15,CUAU,384 ± 32
16,UGUC,537 ± 48
17,ACAGG,358 ± 32
18,GGAC,724 ± 120
19,GACUC,577 ± 33
20,UCGGG,301 ± 22
21,UGUA,352 ± 21
22,CAGUA,544 ± 58
23,AUACU,274 ± 19
24,UUGCC,577 ± 79
25,UACC,414 ± 42

row,Sequence,TdT poly-dT extension signal
1,AAAAU,605 ± 43
2,GAAGG,368 ± 27
3,UUCGG,261 ± 25
4,GACAC,708 ± 33
5,UGUGU,343 ± 26
6,GGGCC,531 ± 63
7,CUAUA,436 ± 37
8,UUCCC,377 ± 22
9,CAGC,1170 ± 110
10,GCCC,485 ± 57
11,GAUAU,397 ± 23
12,CCUC,581 ± 35
13,GCAU,609 ± 72
14,UGAAG,420 ± 35
15,CCCCA,366 ± 33
16,AGCCU,385 ± 21
17,AUCCG,257 ± 33
18,ACGUA,499 ± 57
19,UAUA,375 ± 18
20,AGGAA,924 ± 84
21,GGGGU,547 ± 22
22,AUUGA,322 ± 18
23,CUUCA,254 ± 20
24,CCAGU,534 ± 47
25,UCCAG,395 ± 20

row,Sequence,TdT poly-dT extension signal
1,AUAUA,431 ± 35
2,ACCCA,470 ± 53
3,UACAA,900 ± 74
4,CAGGC,1060 ± 81
5,GGCG,249 ± 26
6,CUGUG,211 ± 32
7,GGAG,374 ± 20
8,GGCCC,503 ± 43
9,UGAGG,320 ± 28
10,UAGC,1000 ± 70
11,GUCGG,298 ± 11
12,CCAG,470 ± 39
13,CAGGU,493 ± 28
14,GCGCC,688 ± 79
15,AAGCU,482 ± 66
16,AGGG,378 ± 28
17,CACUG,276 ± 22
18,UUGA,347 ± 26
19,AAUUU,252 ± 27
20,CGAC,626 ± 41
21,UCAC,706 ± 44
22,GCUUA,458 ± 32
23,GAACC,465 ± 33
24,GGACA,337 ± 40
25,GAGGU,553 ± 25

row,Sequence,TdT poly-dT extension signal
1,GACUG,281 ± 31
2,ACCGA,571 ± 67
3,UCCCC,421 ± 44
4,GGAGC,1340 ± 130
5,CGGUA,477 ± 36
6,ACAAU,596 ± 71
7,GAACG,310 ± 29
8,CUAC,450 ± 47
9,GCUAC,629 ± 87
10,CGACA,348 ± 31
11,GCAAA,1260 ± 170
12,UCUCA,353 ± 41
13,AGCAA,883 ± 81
14,CUGG,284 ± 26
15,UACAU,485 ± 31
16,UCGGA,471 ± 35
17,CUAGU,414 ± 26
18,CAACA,373 ± 34
19,CAACG,347 ± 20
20,ACGGC,894 ± 82
21,UAUUC,301 ± 26
22,GUAUC,404 ± 28
23,AGAAA,870 ± 44
24,UAGCU,375 ± 15
25,ACACA,394 ± 65

row,Sequence,TdT poly-dT extension signal
1,GUCG,285 ± 32
2,CGUAG,402 ± 41
3,AUUUU,177 ± 13
4,CAACC,427 ± 30
5,UCGAU,402 ± 31
6,GUGG,266 ± 22
7,GUCU,278 ± 20
8,GCACU,411 ± 58
9,CUAGC,785 ± 76
10,GCUAG,242 ± 23
11,UUGAC,732 ± 82
12,AGAAU,430 ± 30
13,CGAAU,446 ± 32
14,CCGCG,351 ± 19
15,UUAU,295 ± 21
16,CCGU,516 ± 34
17,UAUG,146 ± 15
18,GUGAC,747 ± 46
19,UUUGU,313 ± 23
20,ACGCA,585 ± 79
21,UCGC,1140 ± 90
22,UCCG,204 ± 16
23,GACUA,583 ± 75
24,AUGGA,466 ± 24
25,AAACA,425 ± 51

row,Sequence,TdT poly-dT extension signal
1,UUCCA,372 ± 59
2,AUUUA,301 ± 17
3,UGAAC,702 ± 32
4,AAGAA,1060 ± 63
5,AUGAA,715 ± 45
6,UACA,411 ± 46
7,UGGGA,457 ± 36
8,ACAUC,447 ± 23
9,UUCUA,516 ± 55
10,ACUCC,414 ± 41
11,UCAU,516 ± 30
12,CAAGA,858 ± 93
13,AGGCU,415 ± 46
14,AGAAG,511 ± 44
15,AGUAC,409 ± 38
16,GUGUC,660 ± 87
17,UGAAA,894 ± 54
18,GACUU,318 ± 22
19,GAGAG,522 ± 55
20,ACAUA,595 ± 39
21,UGCUC,572 ± 47
22,CUCUG,252 ± 20
23,UGCGC,836 ± 41
24,GUGAA,729 ± 86
25,GGGCA,291 ± 26

row,Sequence,TdT poly-dT extension signal
1,UGGAC,764 ± 41
2,UUGAG,289 ± 14
3,AAGAG,575 ± 46
4,UGAUA,499 ± 45
5,UCGAG,440 ± 22
6,AGUAA,666 ± 77
7,ACCGG,292 ± 21
8,GGUAA,574 ± 40
9,GAGCC,548 ± 66
10,UGGCU,361 ± 50
11,ACGC,911 ± 54
12,ACAAG,613 ± 60
13,CAUGU,374 ± 35
14,AGCC,544 ± 45
15,GAGCA,449 ± 27
16,UUGUC,354 ± 33
17,CGUCA,307 ± 18
18,GUGUU,234 ± 25
19,CAUUU,191 ± 17
20,GCCCG,205 ± 22
21,CUAA,687 ± 80
22,AUUAU,330 ± 49
23,CACG,339 ± 22
24,UAGAU,491 ± 41
25,ACCU,325 ± 29

row,Sequence,TdT poly-dT extension signal
1,CAGAA,1010 ± 91
2,UGUCC,422 ± 34
3,GGUAG,272 ± 28
4,CCUGC,1030 ± 75
5,UCCUU,350 ± 34
6,CACUA,633 ± 42
7,CAUAC,442 ± 26
8,AGAGG,439 ± 52
9,GCUCU,316 ± 25
10,CCAUU,359 ± 13
11,GUUUG,128 ± 16
12,CAGAU,477 ± 34
13,UUAUU,201 ± 16
14,UAUGA,393 ± 34
15,ACGUC,516 ± 40
16,GGAAU,503 ± 38
17,UUUCA,224 ± 24
18,AAGGG,368 ± 22
19,AUCU,280 ± 24
20,UUGAA,652 ± 41
21,UGAA,549 ± 44
22,CCAAG,590 ± 24
23,UACGG,384 ± 39
24,GCUCG,263 ± 19
25,CGGUU,300 ± 22

row,Sequence,TdT poly-dT extension signal
1,CUUA,341 ± 33
2,GACA,349 ± 28
3,GUUUU,266 ± 29
4,UGCUU,360 ± 22
5,GGCAU,577 ± 48
6,CAAAA,1140 ± 66
7,UAGCC,518 ± 31
8,CAGCA,560 ± 60
9,ACAC,728 ± 82
10,CCCCU,310 ± 14
11,UAACC,400 ± 29
12,CGUG,298 ± 26
13,AGCGC,712 ± 49
14,GCCAA,696 ± 70
15,CUGCG,284 ± 29
16,UGAG,343 ± 23
17,UGACA,314 ± 31
18,AGCGG,334 ± 25
19,AGCA,471 ± 31
20,GAACA,413 ± 46
21,UGUAC,414 ± 27
22,UUCAG,435 ± 29
23,UCGGC,929 ± 62
24,UUCGU,500 ± 42
25,GAUCU,317 ± 34

row,Sequence,TdT poly-dT extension signal
1,UAGG,328 ± 22
2,AAUCU,240 ± 14
3,AAAGU,535 ± 51
4,GCAA,841 ± 41
5,UCGGU,469 ± 22
6,GUAU,321 ± 25
7,AUAGC,990 ± 77
8,GUCCC,475 ± 28
9,AAUGG,219 ± 18
10,UCGCC,549 ± 35
11,UCUAA,714 ± 36
12,CUGU,401 ± 31
13,UAACG,256 ± 23
14,CAAAU,657 ± 54
15,AUUCG,157 ± 20
16,AGGUA,416 ± 27
17,CCUCC,490 ± 49
18,GCGGU,476 ± 29
19,AGCU,275 ± 22
20,AGGCG,244 ± 16
21,AUAGA,663 ± 47
22,AUGU,356 ± 29
23,UGCUG,224 ± 16
24,AGCUC,545 ± 48
25,CCCAA,1040 ± 63

row,Sequence,TdT poly-dT extension signal
1,UCUUC,315 ± 25
2,UGUGA,362 ± 29
3,UAACA,312 ± 21
4,UUCGA,389 ± 32
5,GUGGC,1080 ± 140
6,CAGU,512 ± 30
7,ACAUG,260 ± 18
8,CUUUA,300 ± 25
9,CUGAG,425 ± 37
10,GUAAA,978 ± 120
11,CACU,394 ± 58
12,GAGGG,362 ± 32
13,GAAU,468 ± 32
14,UGGUG,177 ± 11
15,ACAA,1060 ± 140
16,CCCUA,590 ± 52
17,CGAUU,247 ± 18
18,AUCC,396 ± 50
19,UUUGG,185 ± 15
20,ACCA,460 ± 37
21,UAUGC,1010 ± 88
22,CCCC,515 ± 31
23,UUUUC,317 ± 18
24,UCCCU,281 ± 21
